± gives the standard deviation of the averaged measurements. Laboratory Escherichia coli strains with one amino-acid change in an essential protein, pooled on minimal glucose agar with carbenicillin or gentamicin at twice the control MIC (plus kanamycin and chloramphenicol for the plasmids), 48 h. Fold change of barcode share against drug-free plates; higher = less susceptible. Active = above 20 in both replicates (the paper's putatively resistant). '<' = one read or none on drug, '>' = one read or none on a drug-free plate. Shares are relative, so most strains fall below 1 when a few take over. Listed are strains with at least 15 reads on both drug-free plates, and hits; most hits rest on fewer reference reads. Replicate rank correlation about 0.5. Edits are read from barcodes.

B1: lptA L45A (protein)
chain: MKFKTNKLSLNLVLASSLLAASIPAFAVTGDTDQPIHIESDQQSADMQGNVVTFTGNVIVTQGTIKINADKVVVTRPGGEQGKEVIDGYGKPATFYQMQDNGKPVEGHASQMHYELAKDFVVLTGNAYLQQVDSNIKGDKITYLVKEQKMQAFSDKGKRVTTVLVPSQLQDKNNKGQTPAQKKGN
B2: lptA I67A (protein)
chain: MKFKTNKLSLNLVLASSLLAASIPAFAVTGDTDQPIHIESDQQSLDMQGNVVTFTGNVIVTQGTIKANADKVVVTRPGGEQGKEVIDGYGKPATFYQMQDNGKPVEGHASQMHYELAKDFVVLTGNAYLQQVDSNIKGDKITYLVKEQKMQAFSDKGKRVTTVLVPSQLQDKNNKGQTPAQKKGN
B3: lptA L45W (protein)
chain: MKFKTNKLSLNLVLASSLLAASIPAFAVTGDTDQPIHIESDQQSWDMQGNVVTFTGNVIVTQGTIKINADKVVVTRPGGEQGKEVIDGYGKPATFYQMQDNGKPVEGHASQMHYELAKDFVVLTGNAYLQQVDSNIKGDKITYLVKEQKMQAFSDKGKRVTTVLVPSQLQDKNNKGQTPAQKKGN
B4: lptA L45P (protein)
chain: MKFKTNKLSLNLVLASSLLAASIPAFAVTGDTDQPIHIESDQQSPDMQGNVVTFTGNVIVTQGTIKINADKVVVTRPGGEQGKEVIDGYGKPATFYQMQDNGKPVEGHASQMHYELAKDFVVLTGNAYLQQVDSNIKGDKITYLVKEQKMQAFSDKGKRVTTVLVPSQLQDKNNKGQTPAQKKGN
B5: lptA V74Q (protein)
chain: MKFKTNKLSLNLVLASSLLAASIPAFAVTGDTDQPIHIESDQQSLDMQGNVVTFTGNVIVTQGTIKINADKVVQTRPGGEQGKEVIDGYGKPATFYQMQDNGKPVEGHASQMHYELAKDFVVLTGNAYLQQVDSNIKGDKITYLVKEQKMQAFSDKGKRVTTVLVPSQLQDKNNKGQTPAQKKGN
B6: lptA V74W (protein)
chain: MKFKTNKLSLNLVLASSLLAASIPAFAVTGDTDQPIHIESDQQSLDMQGNVVTFTGNVIVTQGTIKINADKVVWTRPGGEQGKEVIDGYGKPATFYQMQDNGKPVEGHASQMHYELAKDFVVLTGNAYLQQVDSNIKGDKITYLVKEQKMQAFSDKGKRVTTVLVPSQLQDKNNKGQTPAQKKGN
B7: lptA L45Q (protein)
chain: MKFKTNKLSLNLVLASSLLAASIPAFAVTGDTDQPIHIESDQQSQDMQGNVVTFTGNVIVTQGTIKINADKVVVTRPGGEQGKEVIDGYGKPATFYQMQDNGKPVEGHASQMHYELAKDFVVLTGNAYLQQVDSNIKGDKITYLVKEQKMQAFSDKGKRVTTVLVPSQLQDKNNKGQTPAQKKGN
B8: lptA I67Q (protein)
chain: MKFKTNKLSLNLVLASSLLAASIPAFAVTGDTDQPIHIESDQQSLDMQGNVVTFTGNVIVTQGTIKQNADKVVVTRPGGEQGKEVIDGYGKPATFYQMQDNGKPVEGHASQMHYELAKDFVVLTGNAYLQQVDSNIKGDKITYLVKEQKMQAFSDKGKRVTTVLVPSQLQDKNNKGQTPAQKKGN
B9: lptA V74A (protein)
chain: MKFKTNKLSLNLVLASSLLAASIPAFAVTGDTDQPIHIESDQQSLDMQGNVVTFTGNVIVTQGTIKINADKVVATRPGGEQGKEVIDGYGKPATFYQMQDNGKPVEGHASQMHYELAKDFVVLTGNAYLQQVDSNIKGDKITYLVKEQKMQAFSDKGKRVTTVLVPSQLQDKNNKGQTPAQKKGN
B10: lptG I19A (protein)
chain: MQPFGVLDRYIGKTIFTTAMMTLFMLVSLSGIIKFVDQLKKAGQGSYDALGAGMYTLLSVPKDVQIFFPMAALLGALLGLGMLAQRSELVVMQASGFTRMQVALSVMKTAIPLVLLTMAIGEWVAPQGEQMARNYRAQAMYGGSLLSTQQGLWAKDGNNFVYIERVKGDEELGGISIYAFNENRRLQSVRYAATAKFDPEHKVWRLSQVDESDLTNPKQITGSQTVSGTWKTNLTPDKLGVVALDPDALSISGLHNYVKYLKSSGQDAGRYQLNMWSKIFQPLSVAVMMLMALSFIFGPLRSVPMGVRVVTGISFGFVFYVLDQIFGPLTLVYGIPPIIGALLPSASFFLISLWLLMRKS
B11: lptG I19W (protein)
chain: MQPFGVLDRYIGKTIFTTWMMTLFMLVSLSGIIKFVDQLKKAGQGSYDALGAGMYTLLSVPKDVQIFFPMAALLGALLGLGMLAQRSELVVMQASGFTRMQVALSVMKTAIPLVLLTMAIGEWVAPQGEQMARNYRAQAMYGGSLLSTQQGLWAKDGNNFVYIERVKGDEELGGISIYAFNENRRLQSVRYAATAKFDPEHKVWRLSQVDESDLTNPKQITGSQTVSGTWKTNLTPDKLGVVALDPDALSISGLHNYVKYLKSSGQDAGRYQLNMWSKIFQPLSVAVMMLMALSFIFGPLRSVPMGVRVVTGISFGFVFYVLDQIFGPLTLVYGIPPIIGALLPSASFFLISLWLLMRKS
B12: lptG I19D (protein)
chain: MQPFGVLDRYIGKTIFTTDMMTLFMLVSLSGIIKFVDQLKKAGQGSYDALGAGMYTLLSVPKDVQIFFPMAALLGALLGLGMLAQRSELVVMQASGFTRMQVALSVMKTAIPLVLLTMAIGEWVAPQGEQMARNYRAQAMYGGSLLSTQQGLWAKDGNNFVYIERVKGDEELGGISIYAFNENRRLQSVRYAATAKFDPEHKVWRLSQVDESDLTNPKQITGSQTVSGTWKTNLTPDKLGVVALDPDALSISGLHNYVKYLKSSGQDAGRYQLNMWSKIFQPLSVAVMMLMALSFIFGPLRSVPMGVRVVTGISFGFVFYVLDQIFGPLTLVYGIPPIIGALLPSASFFLISLWLLMRKS
B13: lptG I19Q (protein)
chain: MQPFGVLDRYIGKTIFTTQMMTLFMLVSLSGIIKFVDQLKKAGQGSYDALGAGMYTLLSVPKDVQIFFPMAALLGALLGLGMLAQRSELVVMQASGFTRMQVALSVMKTAIPLVLLTMAIGEWVAPQGEQMARNYRAQAMYGGSLLSTQQGLWAKDGNNFVYIERVKGDEELGGISIYAFNENRRLQSVRYAATAKFDPEHKVWRLSQVDESDLTNPKQITGSQTVSGTWKTNLTPDKLGVVALDPDALSISGLHNYVKYLKSSGQDAGRYQLNMWSKIFQPLSVAVMMLMALSFIFGPLRSVPMGVRVVTGISFGFVFYVLDQIFGPLTLVYGIPPIIGALLPSASFFLISLWLLMRKS
B14: lptG V64A (protein)
chain: MQPFGVLDRYIGKTIFTTIMMTLFMLVSLSGIIKFVDQLKKAGQGSYDALGAGMYTLLSVPKDAQIFFPMAALLGALLGLGMLAQRSELVVMQASGFTRMQVALSVMKTAIPLVLLTMAIGEWVAPQGEQMARNYRAQAMYGGSLLSTQQGLWAKDGNNFVYIERVKGDEELGGISIYAFNENRRLQSVRYAATAKFDPEHKVWRLSQVDESDLTNPKQITGSQTVSGTWKTNLTPDKLGVVALDPDALSISGLHNYVKYLKSSGQDAGRYQLNMWSKIFQPLSVAVMMLMALSFIFGPLRSVPMGVRVVTGISFGFVFYVLDQIFGPLTLVYGIPPIIGALLPSASFFLISLWLLMRKS
B15: lptG V64W (protein)
chain: MQPFGVLDRYIGKTIFTTIMMTLFMLVSLSGIIKFVDQLKKAGQGSYDALGAGMYTLLSVPKDWQIFFPMAALLGALLGLGMLAQRSELVVMQASGFTRMQVALSVMKTAIPLVLLTMAIGEWVAPQGEQMARNYRAQAMYGGSLLSTQQGLWAKDGNNFVYIERVKGDEELGGISIYAFNENRRLQSVRYAATAKFDPEHKVWRLSQVDESDLTNPKQITGSQTVSGTWKTNLTPDKLGVVALDPDALSISGLHNYVKYLKSSGQDAGRYQLNMWSKIFQPLSVAVMMLMALSFIFGPLRSVPMGVRVVTGISFGFVFYVLDQIFGPLTLVYGIPPIIGALLPSASFFLISLWLLMRKS
B16: aroC M341A (protein)
chain: MAGNTIGQLFRVTTFGESHGLALGCIVDGVPPGIPLTEADLQHDLDRRRPGTSRYTTQRREPDQVKILSGVFEGVTTGTSIGLLIENTDQRSQDYSAIKDVFRPGHADYTYEQKYGLRDYRGGGRSSARETAMRVAAGAIAKKYLAEKFGIEIRGCLTQMGDIPLDIKDWSQVEQNPFFCPDPDKIDALDELMRALKKEGDSIGAKVTVVASGVPAGLGEPVFDRLDADIAHALMSINAVKGVEIGDGFDVVALRGSQNRDEITKDGFQSNHAGGILGGISSGQQIIAHMALKPTSSITVPGRTINRFGEEVEMITKGRHDPCVGIRAVPIAEAMLAIVLADHLLRQRAQNADVKTDIPRW
B17: aroC M341Q (protein)
chain: MAGNTIGQLFRVTTFGESHGLALGCIVDGVPPGIPLTEADLQHDLDRRRPGTSRYTTQRREPDQVKILSGVFEGVTTGTSIGLLIENTDQRSQDYSAIKDVFRPGHADYTYEQKYGLRDYRGGGRSSARETAMRVAAGAIAKKYLAEKFGIEIRGCLTQMGDIPLDIKDWSQVEQNPFFCPDPDKIDALDELMRALKKEGDSIGAKVTVVASGVPAGLGEPVFDRLDADIAHALMSINAVKGVEIGDGFDVVALRGSQNRDEITKDGFQSNHAGGILGGISSGQQIIAHMALKPTSSITVPGRTINRFGEEVEMITKGRHDPCVGIRAVPIAEAMLAIVLQDHLLRQRAQNADVKTDIPRW

One data set addresses Escherichia coli (laboratory strain). In words: barcode share on antibiotic plates over drug-free plates; higher = less susceptible. The note with it: antibiotic: carbenicillin; 2× MIC (3.1 µg/mL). The protocol:
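A pool of E. coli strains, each edited to carry one amino-acid change in an essential protein, was grown for 48 h on minimal glucose agar with or without antibiotic; strain barcodes were sequenced; mean of two replicates.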
Turning to B1, the “fold change of barcode share” value is 0.379 ± 0.014. Turning to B2, the “fold change of barcode share” value was 0.198 ± 0.12.

Consider B3, for which the “fold change of barcode share” value stood at 0.52 ± 0.12.

Consider B4, for which the “fold change of barcode share” value came to 0.207 ± 0.22. Still for that read-out and setting: with B5 the figure was 0.287 ± 0.018. Still for that read-out and setting: with B6 the figure was 0.265 ± 0.11; with B7, 0.211 ± 0.088. Still for that read-out and setting: as for B8, the figure is 0.182 ± 0.042. For B9, the “fold change of barcode share” value turned out to be 0.167 ± 0.024. Same read-out and setting: as for B10, the figure is 0.355 ± 0.091.

Take B11: the “fold change of barcode share” value is 0.594 ± 0.067.

As to B12, the “fold change of barcode share” value is 0.32 ± 0.044. Still for that read-out and setting: as for B13, the figure is 0.214 ± 0.077; as for B14, 0.495 ± 0.087; as for B15, 0.406 ± 0.12. Same read-out and setting: with B16 the figure was 0.316 ± 0.097.

Consider B17, for which the “fold change of barcode share” value turned out to be 0.865 ± 0.42.

Still in this data set, the particulars now being: antibiotic: gentamicin; 2× MIC (MIC 0.45 µg/mL).
With B2, the “fold change of barcode share” value is under 0.0156. Turning to B4, the “fold change of barcode share” value amounted to 0.175 ± 0.22. With B5, the “fold change of barcode share” value was under 0.00692. Turning to B6, the “fold change of barcode share” value stood at 0.0134 ± 0.0092.

With B7, the “fold change of barcode share” value turned out to be 0.0157 ± 0.012. Regarding B8, the “fold change of barcode share” value is under 0.0195.

As to B9, the “fold change of barcode share” value was under 0.00474. Still for that read-out and setting: as for B10, the figure is 0.0196 ± 0.0048. The same measure, in the same setting: as for B11, the figure is under 0.00713. Turning to B13, the “fold change of barcode share” value was under 0.00943. Same read-out and setting: with B14 the figure was 0.0178 ± 0.0046; with B15, 0.00661 ± 0.0017. Still for that read-out and setting: as for B16, the figure is under 0.00744.

The values above are taken from the supplement of paper PMC11876631.
